# Source: the supplement of paper PMC8728848
# The other results are listed elsewhere or left out.
# B1: PNA (Arachis hypogaea), P02872 (protein)
# chain: MKPFCVFLTFFLLLAASSKKVDSAETVSFNFNSFSEGNPAINFQGDVTVLSNGNIQLTNLNKVNSVGRVLYAMPVRIWSSATGNVASFLTSFSFEMKDIKDYDPADGIIFFIAPEDTQIPAGSIGGGTLGVSDTKGAGHFVGVEFDTYSNSEYNDPPTDHVGIDVNSVDSVKTVPWNSVSGAVVKVTVIYDSSTKTLSVAVTNDNGDITTIAQVVDLKAKLPERVKFGFSASGSLGGRQIHLIRSWSFTSTLITTTRRSIDNNEKKIMNMASA
# Assays:
# Assay in all cases: glycan array binding signal (z-score within array); higher = stronger binding
# Settings in all cases: glycan notation: IUPAC condensed, linker removed
# [1] = biological target: GlcA(b1-3)Gal(b1-4)Glc
# In short: (§1)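 The binding signal is a Z-score computed within each array. Data were drawn from 3228 arrays in the Consortium for Functional Glycomics database, restricted to those with a known protein sequence. Scores were averaged over arrays of the same protein sequence at different concentrations or buffers, and over linkers, and negative values can be taken as non-binding.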
# [2] = biological target: GlcA(b1-3)Gal(b1-4)GlcNAc(b1-3)Gal(b1-4)Glc
# In short: as §1
# [3] = biological target: GlcA(b1-3)Gal(b1-4)GlcNAc(b1-3)Gal(b1-4)GlcNAc(b1-3)Gal(b1-4)Glc
# In short: as §1
# [4] = biological target: GlcA(b1-3)GlcNAc
# In short: as §1
# [5] = biological target: GlcA(b1-3)GlcNAc(b1-4)GlcA(b1-3)GlcNAc
# In short: as §1
# [6] = biological target: GlcA(b1-3)GlcNAc(b1-4)GlcA(b1-3)GlcNAc(b1-4)GlcA(b1-3)GlcNAc(b1-4)GlcA(b1-3)GlcNAc(b1-4)GlcA(b1-3)GlcNAc(b1-4)GlcA(b1-3)GlcNAc(b1-4)GlcA(b1-3)GlcNAc
# In short: as §1
# [7] = biological target: GlcA(b1-4)GlcNAc(a1-4)GlcA(b1-4)2,5-Anhydro-Man
# In short: as §1
# [8] = biological target: GlcA(b1-4)GlcNAc(a1-4)GlcA(b1-4)GlcNAc(a1-4)GlcA(b1-4)GlcNAc(a1-4)GlcA(b1-4)2,5-Anhydro-Man
# In short: as §1
# [9] = biological target: GlcA(b1-6)Gal
# In short: as §1
# [10] = biological target: GlcA3S(b1-3)Gal
# In short: as §1
# [11] = biological target: GlcA3S(b1-3)Gal(b1-4)Glc
# In short: as §1
# [12] = biological target: GlcA3S(b1-3)Gal(b1-4)GlcNAc(b1-2)Man
# In short: as §1
# [13] = biological target: GlcA3S(b1-3)Gal(b1-4)GlcNAc(b1-3)Gal(b1-4)Glc
# In short: as §1
# [14] = biological target: GlcA3S(b1-3)Gal(b1-4)GlcNAc(b1-3)Gal(b1-4)GlcNAc(b1-3)Gal(b1-4)Glc
# In short: as §1
# [15] = biological target: GlcNAc(a1-3)Gal(b1-4)GlcNAc
# In short: as §1
# [16] = biological target: GlcNAc(a1-4)Gal
# In short: as §1
# [17] = biological target: GlcNAc(a1-4)Gal(b1-3)GlcNAc
# In short: as §1
# [18] = biological target: GlcNAc(a1-4)Gal(b1-3)[Fuc(a1-2)]Gal
# In short: as §1
# [19] = biological target: GlcNAc(a1-4)Gal(b1-4)GalNAc
# In short: as §1
# [20] = biological target: GlcNAc(a1-4)Gal(b1-4)GlcNAc
# In short: as §1
# [21] = biological target: GlcNAc(a1-4)Gal(b1-4)GlcNAc(b1-3)Gal(b1-4)Glc
# In short: as §1
# [22] = biological target: GlcNAc(a1-4)Gal(b1-4)GlcNAc(b1-3)Gal(b1-4)GlcNAc
# In short: as §1
# [23] = biological target: GlcNAc(a1-4)Gal(b1-4)GlcNAc(b1-3)Gal(b1-4)GlcNAc(b1-3)Gal(b1-4)GlcNAc
# In short: as §1
# [24] = biological target: GlcNAc(a1-4)Gal(b1-4)GlcNAc(b1-3)Gal(b1-4)[Fuc(a1-3)]GlcNAc(b1-3)Gal(b1-4)[Fuc(a1-3)]GlcNAc
# In short: as §1
# [25] = biological target: GlcNAc(a1-6)Gal(b1-4)GlcNAc
# In short: as §1
# [26] = biological target: GlcNAc(b1-2)Fuc
# In short: as §1
# [27] = biological target: GlcNAc(b1-2)Gal(b1-3)GalNAc
# In short: as §1
# [28] = biological target: GlcNAc(b1-2)Man
# In short: as §1
# [29] = biological target: GlcNAc(b1-2)Man(a1-3)[GlcNAc(b1-2)Man(a1-6)]Man
# In short: as §1
# [30] = biological target: GlcNAc(b1-2)Man(a1-3)[GlcNAc(b1-2)Man(a1-6)]Man(b1-4)GlcNAc(b1-4)GlcNAc
# In short: as §1
# [31] = biological target: GlcNAc(b1-2)Man(a1-3)[GlcNAc(b1-2)Man(a1-6)]Man(b1-4)GlcNAc(b1-4)[Fuc(a1-6)]GlcNAc
# In short: as §1
# [32] = biological target: GlcNAc(b1-2)Man(a1-3)[GlcNAc(b1-2)Man(a1-6)][GlcNAc(b1-4)]Man(b1-4)GlcNAc(b1-4)GlcNAc
# In short: as §1
# [33] = biological target: GlcNAc(b1-2)Man(a1-3)[GlcNAc(b1-4)][GlcNAc(b1-2)Man(a1-6)]Man(b1-4)GlcNAc(b1-4)GlcNAc
# In short: as §1
# [34] = biological target: GlcNAc(b1-2)Man(a1-3)[GlcNAc(b1-4)][GlcNAc(b1-2)Man(a1-6)]Man(b1-4)GlcNAc(b1-4)[Fuc(a1-6)]GlcNAc
# In short: as §1
# [35] = biological target: GlcNAc(b1-2)Man(a1-3)[Man(a1-3)[Man(a1-6)]Man(a1-6)][GlcNAc(b1-4)]Man(b1-4)GlcNAc(b1-4)GlcNAc
# In short: as §1
# [36] = biological target: GlcNAc(b1-2)[GlcNAc(b1-4)]Man(a1-3)[GlcNAc(b1-2)Man(a1-6)]Man(b1-4)GlcNAc(b1-4)GlcNAc
# In short: as §1
# [37] = biological target: GlcNAc(b1-2)[GlcNAc(b1-4)]Man(a1-3)[GlcNAc(b1-2)Man(a1-6)][GlcNAc(b1-4)]Man(b1-4)GlcNAc(b1-4)GlcNAc
# In short: as §1
# [38] = biological target: GlcNAc(b1-2)[GlcNAc(b1-4)]Man(a1-3)[GlcNAc(b1-2)[GlcNAc(b1-4)][GlcNAc(b1-6)]Man(a1-6)][GlcNAc(b1-4)]Man(b1-4)GlcNAc(b1-4)GlcNAc
# In short: as §1
binder,measurement,setting,value
B1,glycan array binding signal (z-score),[1],-0.195
same,glycan array binding signal (z-score),[2],-0.195
same,glycan array binding signal (z-score),[3],-0.195
same,glycan array binding signal (z-score),[4],0.03
same,glycan array binding signal (z-score),[5],-0.195
same,glycan array binding signal (z-score),[6],-0.195
same,glycan array binding signal (z-score),[7],-0.195
same,glycan array binding signal (z-score),[8],-0.195
same,glycan array binding signal (z-score),[9],-0.15
same,glycan array binding signal (z-score),[10],-0.195
same,glycan array binding signal (z-score),[11],-0.195
same,glycan array binding signal (z-score),[12],-0.368
same,glycan array binding signal (z-score),[13],-0.211
same,glycan array binding signal (z-score),[14],-0.195
same,glycan array binding signal (z-score),[15],-0.046
same,glycan array binding signal (z-score),[16],-0.195
same,glycan array binding signal (z-score),[17],-0.12
same,glycan array binding signal (z-score),[18],-0.195
same,glycan array binding signal (z-score),[19],-0.151
same,glycan array binding signal (z-score),[20],0.082
same,glycan array binding signal (z-score),[21],0.054
same,glycan array binding signal (z-score),[22],0.074
same,glycan array binding signal (z-score),[23],0.017
same,glycan array binding signal (z-score),[24],-0.052
same,glycan array binding signal (z-score),[25],-0.165
same,glycan array binding signal (z-score),[26],-0.195
same,glycan array binding signal (z-score),[27],-0.177
same,glycan array binding signal (z-score),[28],-0.195
same,glycan array binding signal (z-score),[29],-0.195
same,glycan array binding signal (z-score),[30],-0.143
same,glycan array binding signal (z-score),[31],-0.132
same,glycan array binding signal (z-score),[32],-0.185
same,glycan array binding signal (z-score),[33],-0.158
same,glycan array binding signal (z-score),[34],-0.196
same,glycan array binding signal (z-score),[35],-0.195
same,glycan array binding signal (z-score),[36],-0.034
same,glycan array binding signal (z-score),[37],0.022
same,glycan array binding signal (z-score),[38],-0.041
